Eleven compounds from the supplement of paper PMC4604168 (melanoma cell lines) can be followed below.

Some of the results follow. Most values come without repeats; read them as rough.
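Also: cells treated in 1,536-well plates, then fixed and DAPI-stained, with nuclei counted from automated high-throughput microscope images.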

The subject of this test is C32. The test can be described thus: cell count relative to DMSO control; melanoma cells; higher = more viable cells. Particulars: library dose: standard library concentration; 72 h.
For the compound `CC[C@]1(O)C[C@H]2CN(CCc3c([nH]c4ccccc34)[C@@](C(=O)OC)(c3cc4c(cc3OC)N(C=O)[C@H]3[C@@](O)(C(=O)OC)[C@H](OC(C)=O)[C@]5(CC)C=CCN6CC[C@]43[C@@H]65)C2)C1` [vincristine] + O=S(=O)(c1ccccc1)N(CC(F)(F)F)c1ccc(C(O)(C(F)(F)F)C(F)(F)F)cc1 [T0901317] (first compound 0.0005 µM, partner dose 7 µM), the cell count was found to be 68.1%. Consider `Cc1cc(Nc2cc(N3CCN(C)CC3)nc(Sc3ccc(NC(=O)C4CC4)cc3)n2)n[nH]1` [Tozasertib] + COc1ccc(C2=N[C@@H](c3ccc(Cl)cc3)[C@@H](c3ccc(Cl)cc3)N2C(=O)N2CCNC(=O)C2)c(OC(C)C)c1 [Nutlin-3] (first compound 0.03 µM, partner dose 0.5 µM), for which the cell count was determined as 61.4%. Compound `CC[C@]1(O)C[C@H]2CN(CCc3c([nH]c4ccccc34)[C@@](C(=O)OC)(c3cc4c(cc3OC)N(C=O)[C@H]3[C@@](O)(C(=O)OC)[C@H](OC(C)=O)[C@]5(CC)C=CCN6CC[C@]43[C@@H]65)C2)C1` [vincristine] + CS(=O)(=O)c1ccc(C(=O)Nc2ccc(Cl)c(-c3ccccn3)c2)c(Cl)c1 [vismodegib] (first compound 0.0005 µM, partner dose 5 µM) showed a cell count of 103%. To `CC[C@]1(O)C[C@H]2CN(CCc3c([nH]c4ccccc34)[C@@](C(=O)OC)(c3cc4c(cc3OC)N(C=O)[C@H]3[C@@](O)(C(=O)OC)[C@H](OC(C)=O)[C@]5(CC)C=CCN6CC[C@]43[C@@H]65)C2)C1` [vincristine] + C#Cc1cccc(Nc2ncnc3cc(OCCOC)c(OCCOC)cc23)c1 [erlotinib] (first compound 0.0005 µM, partner dose 4 µM) belongs 54.5%; to `Cc1cc(Nc2cc(N3CCN(C)CC3)nc(Sc3ccc(NC(=O)C4CC4)cc3)n2)n[nH]1` [Tozasertib] + Cc1cn(-c2cc(NC(=O)c3ccc(C)c(Nc4nccc(-c5cccnc5)n4)c3)cc(C(F)(F)F)c2)cn1 [nilotinib] (first compound 0.03 µM, partner dose 1 µM), 78.9%; to `Cc1cc(Nc2cc(N3CCN(C)CC3)nc(Sc3ccc(NC(=O)C4CC4)cc3)n2)n[nH]1` [Tozasertib] + O=C(O)C(=O)Nc1sc2c(c1C(=O)O)CCNC2 [TCS401] (first compound 0.03 µM, partner dose 8.33333 µM), 96%.

In turn, `Cc1cc(Nc2cc(N3CCN(C)CC3)nc(Sc3ccc(NC(=O)C4CC4)cc3)n2)n[nH]1` [Tozasertib] + O=S(=O)(c1ccccc1)N(CC(F)(F)F)c1ccc(C(O)(C(F)(F)F)C(F)(F)F)cc1 [T0901317] (first compound 0.03 µM, partner dose 7 µM) had a cell count of 71%. `CC[C@]1(O)C[C@H]2CN(CCc3c([nH]c4ccccc34)[C@@](C(=O)OC)(c3cc4c(cc3OC)N(C=O)[C@H]3[C@@](O)(C(=O)OC)[C@H](OC(C)=O)[C@]5(CC)C=CCN6CC[C@]43[C@@H]65)C2)C1` [vincristine] + O=C(/C=C/c1cccnc1)NCCCCC1CCN(C(=O)c2ccccc2)CC1 [FK866] (first compound 0.0005 µM, partner dose 0.05 µM): the cell count was determined as 87.5%. Compound `Cc1cc(Nc2cc(N3CCN(C)CC3)nc(Sc3ccc(NC(=O)C4CC4)cc3)n2)n[nH]1` [Tozasertib] + OCCn1cc(-c2cnc3nnn(Cc4ccc5ncccc5c4)c3n2)cn1 [PF04217903] (first compound 0.03 µM, partner dose 5 µM) showed a cell count of 61%. In the case of `CC[C@]1(O)C[C@H]2CN(CCc3c([nH]c4ccccc34)[C@@](C(=O)OC)(c3cc4c(cc3OC)N(C=O)[C@H]3[C@@](O)(C(=O)OC)[C@H](OC(C)=O)[C@]5(CC)C=CCN6CC[C@]43[C@@H]65)C2)C1` [vincristine] + C[C@@H]1CCN(C(=O)CC#N)C[C@@H]1N(C)c1ncnc2[nH]ccc12 [CP690550] (first compound 0.0005 µM, partner dose 5 µM) it was 87.3%; in that of `Cc1cc(Nc2cc(N3CCN(C)CC3)nc(Sc3ccc(NC(=O)C4CC4)cc3)n2)n[nH]1` [Tozasertib] + CCCCCCCCCCCCCCCCCCOP(=O)([O-])OC1CC[N+](C)(C)CC1 [Perifosine] (first compound 0.03 µM, partner dose 2 µM), 101%.
